Measurements from PubChem BioAssay AID1466 (National Center for Advancing Translational Sciences (NCATS), 2008).
Screen size: about 200,000 compounds; about 10 (0.005%) were called active. The inconclusive results got no clear call from the source; some entries with a clear call stand among them for comparison. Calls come from the whole dose curve; as a rule, active = well fitted inhibition curve with a large enough effect; inconclusive = small, poorly fitted or top-dose-only effect, or effect the other way, or another doubt; inactive = no such curve, though single readings can be large or run the other way. Potencies of inconclusive entries are left out as doubtful fits.

target: Lysosomal alpha-glucosidase (Homo sapiens) (UniProt P10253); assay: qHTS Assay for Inhibitors of Human alpha-Glucosidase as a Potential Chaperone Treatment of Pompe Disease; conditions: purified human GAA, 4-MU-alpha-glucoside fluorescence; activity change, negative = inhibition: at 76.9 µM (top of the series) unless noted;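 for activity change, negative = inhibition: plate controls were uninhibited enzyme wells for no effect and no-enzyme background for full effect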
Outline: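 Human enzyme at 4 nM with 400 uM 4-methylumbelliferyl-alpha-D-pyranoside, citrate/phosphate buffer pH 5.0, 0.005% Tween-20, 20 min at room temperature. Compounds up to 77 uM. 4-MU fluorescence (Ex 365/Em 440) read after NaOH/glycine stop; AC50 from Hill fit.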
Potency is the fitted concentration of half-maximal effect; tags give direction and shape of the fitted curve.

| Compound | Potency | activity change, negative = inhibition |
| --- | --- | --- |
| CCCC1(C(=O)OCC)NC(c2ccc(OC)cc2OC)C2C(=O)N(c3ccc4c(c3)OCCO4)C(=O)C21 (stereo not given) | inconclusive [inhibitor, full curve] |  |
| COc1ccc(C(=O)NCc2cccnc2)cc1 | inconclusive [inhibitor, single point] |  |
| Cc1ccc(S(=O)(=O)c2c(N)n(C)c3nc4ccccc4nc23)cc1 | inconclusive [activator, partial curve] |  |
| Cc1cc(=O)oc2cc3c(cc12)OCCN3 | inconclusive [activator, partial curve] |  |
| O=C(CC1=NCCNC(c2ccccc2)C1)c1ccccc1O (stereo not given) |  | inconclusive: -17.7% [inhibitor] |
| N#CC1=C(N)Oc2n[nH]c(-c3cccs3)c2C1C1CCCCC1 (stereo not given) | inconclusive [inhibitor, single point] |  |
| COc1ccc(C2C(C(C)=O)=C(C)N=c3s/c(=C\c4cc(C)n(C)c4C)c(=O)n32)c(OC)c1 (stereo not given) | inconclusive [inhibitor, single point] |  |
| Nc1ccc2c(c1)COC2=O | inconclusive [inhibitor, full curve, poor fit] |  |
| CC(=O)Nc1ccc(S(=O)(=O)NCC(=O)OCC(=O)c2cc(C)n(-c3ccc4c(c3)OCO4)c2C)cc1 | inconclusive [inhibitor, single point] |  |
| CCOC(=O)C1=C(C)Nc2ncnn2C1c1cccnc1 (stereo not given) | inconclusive [inhibitor, full curve] |  |
| Cc1c(NC2=C(Cl)C(=O)N(c3ccccc3Cl)C2=O)c(=O)n(-c2ccccc2)n1C |  | inactive: -4.1% |
| COCCN(C(=O)CC1C(=O)NCCN1Cc1ccc(-c2ccccc2)cc1)C(C)C (stereo not given) | inconclusive [inhibitor, single point] |  |
| CCOc1ccc(OCC)c(NC(=O)CCCN2C(=O)c3cccnc3C2=O)c1 | inconclusive [inhibitor, single point] |  |
| Cc1ncc([N+](=O)[O-])n1CCOC(=O)c1ccc(Br)cc1 |  | inconclusive: 18.8% [activator] |
| Cc1ccc(S(=O)(=O)N2CCCCC2)cc1NC(=O)COC(=O)Cc1cccc(C(F)(F)F)c1 | inconclusive [inhibitor, partial curve] |  |
| COc1ccc(N/C=C2\C(=O)CCc3c2oc2cc(Cl)c(O)c(Cl)c32)cc1 | inconclusive [inhibitor, single point] |  |
| Cc1ccc(CN(CC(=O)N/N=C/c2ccco2)S(=O)(=O)c2ccc(C)cc2)cc1 | inconclusive [inhibitor, single point] |  |
| CCn1c(SCC(=O)Nc2ccccc2F)nc2c(c1=O)SC(C)C2 (stereo not given) | inconclusive [inhibitor, partial curve, poor fit] |  |
| COc1cccc(CN(CC2CCCO2)S(=O)(=O)c2ccc(S(=O)(=O)N(C)C)cc2)c1 (stereo not given) | inconclusive [inhibitor, partial curve] |  |
| COc1cc(O)c2c(c1)COC2=O | inconclusive [inhibitor, single point] |  |
| CC(C)(C)n1ncc2c(=O)n(CC(=O)Nc3ccc(Cl)cc3)cnc21 | inconclusive [inhibitor, full curve, poor fit] |  |
| Cc1cc2nn(-c3ccccc3)nc2cc1NC(=O)c1cccs1 | inconclusive [inhibitor, single point] |  |

| Compound | Potency | activity change, negative = inhibition |
| --- | --- | --- |
| COc1ccc(-n2ncc(S(=O)(=O)c3ccccc3)c2-c2ccc(Cl)cc2)cc1 | inconclusive [inhibitor, partial curve] |  |
| CCCCN(C)C(=O)c1cn(CC)c2ccc(S(=O)(=O)N(C)C)cc2c1=O |  | inconclusive: -19.4% [inhibitor] |
| CC(C)Oc1ccc(NC(=O)c2ccncc2)cc1 |  | inconclusive: -18.1% [inhibitor] |
| CCCc1cc(=O)oc2c(CN3CCN(C)CC3)c(O)c(Cl)cc12 | inconclusive [activator, partial curve] |  |
| CN=c1scc(C)n1/N=C/c1ccc(O)c(O)c1O |  | inactive: -13.6% |
| CC(=O)c1ccc(N2CCN(C(=O)COc3ccccc3F)CC2)c(F)c1 | inconclusive [inhibitor, single point] |  |
| Cc1csc(SCCN2C(=O)c3ccccc3C2=O)n1 | inconclusive [inhibitor, single point] |  |
| CCN(C(C)=O)N(CC)c1nc(Cl)nc(NC(C)C)n1 | inconclusive [inhibitor, full curve, poor fit] |  |
| Cc1noc(C)c1S(=O)(=O)N1CCC(C(=O)NCCCN2CC(C)CC(C)C2)CC1 (stereo not given) | inconclusive [inhibitor, single point] |  |
| Cc1cccc(NC(=O)c2ccccc2OCC(=O)N2CCOCC2)c1C |  | inconclusive: -16.1% [inhibitor] |
| O=C(CN(CCO)c1ccccc1)NC12CC3CC(CC(C3)C1)C2 | inconclusive [inhibitor, full curve, poor fit] |  |
| CCCC(=O)C1=C(N2CCCC2)CC(C)(C)C(C(=O)OC)C1=O (stereo not given) |  | inconclusive: -17.2% [inhibitor] |
| O=C1NC(=Nc2ccccc2)SC1Cc1ccccc1 (stereo not given) |  | inconclusive: 17.9% [activator] |
| O=C(Cn1c(=O)sc2ccccc21)NCc1ccco1 | inconclusive [inhibitor, single point] |  |
| CCc1nc(C)ccc1OCC(=O)N(CC)CC | inconclusive [inhibitor, single point] |  |
| O=C(c1ccc(S(=O)(=O)N2CCCCC2)cc1)N1CCN=C1SCc1cccnc1 | inconclusive [inhibitor, partial curve] |  |
| COC(=O)C(Cc1ccc(OC(=O)c2ccc(C)cc2)cc1)N1Cc2ccccc2C1=O (stereo not given) |  | inconclusive: -15.4% [inhibitor] |
| CC(C)(C)OC(=O)NC1CONC1=O (stereo not given) | inconclusive [inhibitor, partial curve] |  |
| C=CCN1C(=O)C(O)(CC(=O)c2ccc(OC)cc2OC)c2cc(Br)ccc21 (stereo not given) | inconclusive [inhibitor, full curve, poor fit] |  |
| Cc1c(C(=O)C(=O)NCCC2=CCCCC2)c2ccccc2n1C | inconclusive [inhibitor, single point] |  |
| O=C(CSc1nc2c(sc3ccccc32)c(=O)n1CCCN1CCCC1)NCc1ccccc1 |  | inconclusive: 15.7% [activator] |
| CCN(CC)P(=O)(Nc1ccc(C)cc1Br)c1ccc(N(C)C)cc1NC(=O)c1ccco1 (stereo not given) | inconclusive [inhibitor, single point] |  |

| Compound | Potency | activity change, negative = inhibition |
| --- | --- | --- |
| Cc1ccccc1NC(=O)CCN1CCCC1 |  | inconclusive: 17% [activator] |
| COc1ccc(Nc2nnc(-c3ccc(O)cc3)c3ccccc23)cc1 |  | inactive: 5.09% |
| CCOC(=O)c1c(O)c2ccccc2n(C)c1=O |  | inconclusive: 17.3% [activator] |
| COc1ccc2[nH]c(=O)c(CN(Cc3cccs3)Cc3nnnn3Cc3ccccc3)cc2c1 | inconclusive [inhibitor, full curve] |  |
| O=C(CCC1CCCN(C(=O)c2ccc3[nH]ccc3c2)C1)N1CCN(c2ccccn2)CC1 (stereo not given) |  | inconclusive: 16.4% [activator] |
| COc1ccc(-c2nc(C#N)c(N3CCc4ccccc4C3)o2)cc1OC |  | inconclusive: 17.4% [activator] |
| COc1cc(OC)cc(C(=O)NC(C)c2cnn(-c3ccccc3C)c2C)c1 (stereo not given) |  | inconclusive: 17.3% [activator] |
| CCOC(=O)c1ccc(S(=O)(=O)N2CCN(C3CCCC3)CC2)cc1 |  | inconclusive: 19.9% [activator] |
| O=C(COc1ccc(S(=O)(=O)N2CCCCC2)cc1)NCc1ccccn1 |  | inactive: -7.73% |
| CCC(C)NC(=O)CSC1=Nc2ccccc2C2=NC(c3ccccc3)C(=O)N12 (stereo not given) | inconclusive [activator, single point] |  |
| Cc1ccc(C(=O)Nc2cc(C(C)C)c(O)c(C(C)C)c2)cc1 | inconclusive [inhibitor, partial curve] |  |
| COC(=O)c1c(C#N)c(N)nc2c1CCC2 | inconclusive [activator, partial curve] |  |
| CCOC(=O)c1c(NC(=O)CC2SC(=NC)N(C)C2=O)sc(C)c1C (stereo not given) | inconclusive [inhibitor, single point] |  |
| CCOC(=O)c1c(/N=C/N(C)C)sc2c1CCC2 |  | inconclusive: -23.3% [inhibitor] |
| Cc1ccc(C(C(=O)NC(C)(C)C)N(Cc2ccco2)C(=O)Cn2nnc(-c3cccs3)n2)cc1 (stereo not given) |  | inactive: -3.83% |
| O=C1CC(C(=O)Nc2ccc(C(=O)O)cc2)C(c2ccccc2)O1 (stereo not given) | inconclusive [activator, single point] |  |
| CC1CCCCN1CCCNC(=O)c1ccc2c(=O)n(CCc3ccccc3)c(=O)[nH]c2c1 (stereo not given) | inconclusive [activator, partial curve] |  |
| Cc1ccc(S(=O)(=O)N2CCN(C(=O)c3n[nH]c(=O)c4ccccc34)CC2)cc1 | inconclusive [inhibitor, partial curve] |  |
| Cn1c(-c2ccc3c(c2)OCO3)cnc1NCc1cccc(Cl)c1 |  | inactive: -2.69% |
| O=C(Nc1cccnc1)c1ccc2nc(-c3ccccc3)c(-c3ccccc3)nc2c1 | inconclusive [inhibitor, single point] |  |
| CCOC(=O)Cn1c(=NC(=O)CN2C(=O)CCC2=O)sc2cc(S(N)(=O)=O)ccc21 |  | inconclusive: -15.6% [inhibitor] |
